Experimental data: US9321849B2, “Uranium-chelating peptides and uses thereof” (priority 2003, dated 2016)

Key:
[1] = Titration by CD (dichroic signal at 222 nm) with calcium ions; format: binding
Experimental: (§1) The CD spectra were recorded with a CD6 device (Jobin Yvon) equipped with a thermostated cuvette holder and computer-controlled using the CDMax program. The compounds were solubilized at a concentration of 5 μM in a 1 mM MES buffer at pH 6.5.The spectra were recorded at ambient temperature between 180 nm and 250 nm using a cuvette with a 0.1 mm optical path. Each spectrum represents the mean of 4 successive accumulations obtained with an integration time of 0.5 s and a step of 0.5 nm. The spectra were smoothed using the algorithm included in the CDMax program.
The absence of a secondary structure was confirmed by proton nuclear magnetic resonance (1H NMR) spectroscopy. When dissolved calcium is added, the CD spectrum takes on a form that is typical of a helicoidal conformation with minima at 206 and 222 nm. A CaM1c titration by CD was then carried out and the intensity of the dichroic signal at 222 nm was reported as a function of the concentration of calcium ions added (FIG. 4).

[2] = CD spectra with 8 equivalents of metal and ESI-MS, qualitative metal binding; settings: 8 equivalents of metal, ESI-MS
[3] = as above; settings: 8 equivalents of metal, ESI-MS; remark: listed apart in the source
[4] = Titration by CD with cadmium; format: binding; settings: aqueous medium at pH 6.5, read-out: Kd Cd (II)
Experimental: as §1

[5] = CD spectra with 8 equivalents of metal and ESI-MS, qualitative metal binding; settings: 8 equivalents of metal, ESI-MS; remark: listed apart in the source
[6] = Compared affinities in 1 mM phosphate medium pH 7 (Table III); format: binding; settings: read-out: Kd (μM) UO2^2+
[7] = Compared affinities (Table III); format: binding; settings: value in μM; read-out: Kd Ca^2+
[8] = CD spectra with 8 equivalents of metal and ESI-MS, qualitative metal binding; settings: 8 equivalents of metal, ESI-MS; remark: listed apart in the source
[9] = as above; settings: 8 equivalents of metal, ESI-MS; remark: listed apart in the source
[10] = Compared affinities in 1 mM phosphate medium pH 7 (Table III); format: binding; settings: values given in μM, read-out: Kd Tb^3
[11] = CD spectra with 8 equivalents of metal, qualitative metal binding
Experimental: as §1
The corresponding peptide CaM-M1c was synthesized and its affinity with respect to various metals was tested by mass spectrometry, circular dichroism (CD) and time-resolved fluorescence (TRLS).

[12] = CD spectra with 8 equivalents of metal and ESI-MS, qualitative metal binding; settings: 8 equivalents of metal, ESI-MS; remark: listed apart in the source
[13] = TRLS titration of uranyl nitrate with peptide in water at pH 6.5; settings: read-out: Kd U (VI), species titrated UO2(OH)+, titration by TRLS, 2 μM uranyl nitrate in water
[14] = CD spectra with 8 equivalents of metal and ESI-MS, qualitative metal binding; settings: 8 equivalents of metal, ESI-MS; remark: listed apart in the source
[15] = Titration by ESI-MS with calcium; format: binding; settings: read-out: dissociation constant Kd, calcium
Experimental: The positive-detection-mode electrospray mass spectra were recorded with a Q-TOF II device (Micromass). The sample to be analyzed was introduced into the source via a syringe pump (Harvard Apparatus). Nitrogen was used as drying and collision gas with a source heated to 80° C. The cone voltage was 30 volts, and a high voltage of 3500 kV was applied to the capillary. The sample solution flow rate was fixed at 5 μL.min^−1. The spectra represent the mean of 40 scans recorded between 400 and 3000 m/z at a scan rate of 6 s/scan.

[16] = Titration by time-resolved laser fluorescence (TRLS) with europium; format: binding; settings: 10 mM MES buffer pH 6.5, emission 618 nm, read-out: Kd Eu (III)
[17] = CD spectra with 8 equivalents of metal, qualitative metal binding; remark: listed apart in the source

With “EQIAEFKEAFALCDKDGDGYITTKELGTCMRSL [CaM-M1c]” the Kd ([1]; CD titration at 222 nm, 10 mM MES pH 6.5, read-out: dissociation constant Kd, calcium) was 30 µM, the Kd ([1]; aqueous medium at pH 6.5, titration by CD and by ESI/MS, read-out: Kd Ca (II)) was 30 ± 1 µM and the “affinity / interaction with europium” value [2] was “good affinity”. For the same sequence, the “affinity / interaction with Sr” value [3] was “No interaction”, the Kd [4] was 8 ± 4 µM and the “affinity / interaction with calcium” value [5] was “good affinity”. For the same sequence, the Kd [6] was 6.8 µM, the Kd [7] was 30 µM and the “affinity / interaction with terbium” value [8] was “good affinity”. The “affinity / interaction with uranium (uranyl)” value [9] was “good affinity”, the Kd [10] was 4 µM and the “affinity / interaction with cobalt” value [11] was “weak affinity”. The “affinity / interaction with Ba” value [12] was “No interaction”, the Kd [13] was 4.7 ± 0.6 µM and the “affinity / interaction with Mg” value [14] was “No interaction”. For the same sequence, the Kd [15] was 30 µM, the Kd [16] was 0.6 µM and the “affinity / interaction with cadmium” value [17] was “good affinity”.
